This is one part of the list. Each Rep nickase domain was tested in vitro on the same pool of single strands (1 h at 37 °C, 3 µM enzyme); the outer parts of the 90-letter strands are left off. Numbers give uncut DNA relative to the enzyme-free pool, as log2; strong cutting gives strongly negative numbers. There is no active / inactive call. Because reads are shares of a total, they shift together; where an enzyme cuts many sequences, the uncut ones exceed 0.
Columns and labels:
Assay in all cases: uncleaved DNA left, log2 of reads against the no-enzyme library (log2 ratio); higher = less cleavage (more negative = more Rep cleavage of the k-mer); sequences stand for … in CTCGTCCG…ACCGGAGA
[1] = tested on: T1, Rep nickase domain of Muscovy duck circovirus
T1 sequence (residues 1-111, tag not shown): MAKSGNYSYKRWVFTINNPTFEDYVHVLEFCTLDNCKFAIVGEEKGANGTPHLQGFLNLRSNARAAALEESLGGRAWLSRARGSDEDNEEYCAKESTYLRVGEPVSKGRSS
Method: (§1)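 A pool of 90-nt single-stranded DNAs with seven random bases just before the constant AC of the nick site (name = the seven bases) was cut by 3 µM recombinant His6-SUMO-tagged Rep nickase domain (300 nM DNA, 50 mM HEPES pH 8.0, 50 mM NaCl, 1 mM MnCl2, 1 h, 37 °C, three replicates). Uncut DNA was amplified and sequenced.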

[2] = tested on: T2, Rep nickase domain of banana bunchy top virus
T2 sequence (residues 1-94, tag not shown): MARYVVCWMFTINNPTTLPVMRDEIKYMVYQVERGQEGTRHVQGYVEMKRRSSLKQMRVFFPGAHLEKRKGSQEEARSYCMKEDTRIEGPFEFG
Method: as §1

[3] = tested on: T3, Rep nickase domain of cabbage leaf curl virus
T3 sequence (residues 1-116, tag not shown): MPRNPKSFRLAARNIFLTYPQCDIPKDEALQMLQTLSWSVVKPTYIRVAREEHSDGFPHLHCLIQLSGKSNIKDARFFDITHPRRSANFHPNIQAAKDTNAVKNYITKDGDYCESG
Method: as §1

[4] = tested on: T4, Rep nickase domain of chickpea chlorotic dwarf virus
T4 sequence (residues 1-124, tag not shown): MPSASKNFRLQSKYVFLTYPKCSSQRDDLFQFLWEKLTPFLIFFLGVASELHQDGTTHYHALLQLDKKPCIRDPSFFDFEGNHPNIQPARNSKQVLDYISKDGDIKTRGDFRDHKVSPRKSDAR
Method: as §1

[5] = tested on: T5, Rep nickase domain of faba bean necrotic yellows virus
T5 sequence (residues 1-98, tag not shown): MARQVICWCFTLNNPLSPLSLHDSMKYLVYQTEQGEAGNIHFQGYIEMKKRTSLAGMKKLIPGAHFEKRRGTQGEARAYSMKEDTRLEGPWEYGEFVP
Method: as §1

[6] = tested on: T6, Rep nickase domain of maize striate mosaic virus
T6 sequence (residues 1-117, tag not shown): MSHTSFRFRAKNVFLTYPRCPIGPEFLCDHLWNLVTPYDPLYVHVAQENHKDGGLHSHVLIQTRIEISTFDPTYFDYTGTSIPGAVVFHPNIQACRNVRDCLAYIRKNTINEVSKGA
Method: as §1

[7] = tested on: T7, Rep nickase domain of porcine circovirus 2
T7 sequence (residues 2-116, tag not shown): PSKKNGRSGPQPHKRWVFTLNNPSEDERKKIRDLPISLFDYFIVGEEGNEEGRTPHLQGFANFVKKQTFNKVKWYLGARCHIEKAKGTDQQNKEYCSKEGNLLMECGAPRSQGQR
Method: as §1

[8] = tested on: T8, Rep nickase domain of tomato golden mosaic virus
T8 sequence (residues 1-124, tag not shown): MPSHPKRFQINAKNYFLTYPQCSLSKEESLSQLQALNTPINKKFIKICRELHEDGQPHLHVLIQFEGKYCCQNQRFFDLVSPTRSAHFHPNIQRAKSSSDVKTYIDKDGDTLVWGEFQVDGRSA
Method: as §1

[9] = tested on: T9, Rep nickase domain of tomato yellow leaf curl virus
T9 sequence (residues 1-136, tag not shown): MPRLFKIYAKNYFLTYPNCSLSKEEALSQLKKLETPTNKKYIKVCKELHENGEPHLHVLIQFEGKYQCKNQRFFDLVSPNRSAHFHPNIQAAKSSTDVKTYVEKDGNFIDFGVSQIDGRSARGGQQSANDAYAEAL
Method: as §1

[10] = tested on: T10, Rep nickase domain of wheat dwarf virus
T10 sequence (residues 1-137, tag not shown): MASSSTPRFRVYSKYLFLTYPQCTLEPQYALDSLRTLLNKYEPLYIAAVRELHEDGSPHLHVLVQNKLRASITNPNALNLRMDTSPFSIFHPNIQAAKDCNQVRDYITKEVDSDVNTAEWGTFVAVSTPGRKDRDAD
Method: as §1

Row | Sequence | uncleaved DNA left (log2) [1] | uncleaved DNA left (log2) [2] | uncleaved DNA left (log2) [3] | uncleaved DNA left (log2) [4] | uncleaved DNA left (log2) [5] | uncleaved DNA left (log2) [6] | uncleaved DNA left (log2) [7] | uncleaved DNA left (log2) [8] | uncleaved DNA left (log2) [9] | uncleaved DNA left (log2) [10]
1 | GTGGCCC | -0.00388 | 0.026 | 0.296 | 0.932 | -0.127 | 1.75 | -0.12 | 0.109 | 0.0405 | 0.0356
2 | TCAGCGC | -0.027 | -0.102 | -0.828 | -0.427 | -0.00258 | -0.961 | 0.194 | -0.109 | 0.0421 | -0.16
3 | ACCGCTC | -0.0853 | -0.123 | -0.228 | -0.477 | 0.0401 | -0.834 | 0.0638 | -0.0792 | -0.0808 | -0.114
4 | AGACTGG | 0.185 | 0.0524 | 0.128 | 0.702 | -0.0422 | 0.932 | 0.163 | 0.0373 | -0.0653 | 0.0887
5 | TACGATC | -0.0618 | 0.0592 | -0.0428 | -0.972 | -0.0968 | -0.559 | -0.0918 | -0.0786 | -0.0826 | 0.0666
6 | AATTCAA | -0.185 | 0.0362 | -0.00938 | -0.449 | 0.0766 | -0.65 | -0.367 | 0.109 | 0.0509 | 0.0952
7 | GCGTAGT | -0.3 | 0.151 | 0.201 | 0.31 | -0.0626 | 0.516 | -2.55 | 0.165 | 0.155 | 0.0901
8 | CCTTTCA | -0.0161 | -0.0119 | 0.243 | -0.674 | -0.065 | -0.266 | -0.106 | -0.0386 | 0.185 | 0.176
9 | ACTACAC | 0.0812 | 0.0529 | -0.0897 | -0.591 | 0.0231 | -0.636 | 0.107 | -0.0376 | -0.0339 | -0.0387
10 | TGCCCGG | 0.0357 | 0.0331 | 0.406 | 1.24 | 0.0289 | 1.64 | 0.0668 | 0.0741 | -0.0921 | 0.0403
11 | TGTCAGG | -0.0545 | -0.0246 | 0.385 | 1.22 | 0.016 | 1.45 | 0.101 | 0.145 | -0.0931 | 0.0727
12 | TTTTGAT | -1.62 | -0.0597 | 0.0884 | -0.295 | 0.0932 | 0.18 | -2.14 | -0.0471 | 0.00555 | 0.0432
13 | GCCACAG | -0.212 | -0.016 | -0.456 | -0.383 | -0.142 | -0.78 | 0.11 | -0.132 | -0.0552 | -0.11
14 | GGTGGGG | 0.106 | -0.0953 | 0.388 | 0.603 | 0.0821 | 0.609 | 0.134 | 0.0952 | 0.0127 | -0.0372
15 | TACCTTA | -0.143 | -0.188 | -0.309 | -2.51 | -0.0192 | -0.579 | -1.18 | -0.122 | -0.148 | -0.212
16 | CGATCTT | -0.666 | -0.226 | -0.0548 | 0.0992 | -0.108 | 1.23 | -1.01 | -0.265 | -0.103 | -0.0048
17 | TAGCACG | 0.0746 | 0.0746 | -0.631 | -0.494 | 0.136 | -0.989 | 0.179 | -0.0649 | -0.0279 | -0.098
18 | TTTTCTA | -0.219 | -0.0997 | 0.119 | -0.849 | -0.131 | 0.161 | -0.349 | -0.0496 | -0.0936 | -0.138
19 | GAATGCC | -0.0186 | -0.0313 | -0.572 | -0.879 | 0.00515 | -0.718 | -0.05 | -0.0795 | 0.0325 | -0.0856
20 | TAGGTAC | 0.0494 | 0.14 | 0.0899 | 0.427 | -0.0871 | 0.358 | 0.137 | -0.0177 | 0.0499 | 0.0818
21 | GTCCCCT | 0.102 | 0.0678 | 0.234 | 0.543 | -0.0455 | 1.57 | -0.103 | -0.0871 | 0.118 | 0.0493
22 | GGTAATA | 0.115 | 0.054 | 0.478 | 1.3 | 0.116 | 1.93 | 0.0812 | 0.0715 | 0.156 | 0.215
23 | TCACTGT | 0.019 | -0.168 | 0.0324 | -0.0786 | -0.0586 | 0.601 | -0.0248 | -0.173 | -0.0778 | -0.0324
24 | CGCGTAA | 0.0217 | 0.0857 | -0.233 | -0.394 | -0.0556 | -0.759 | 0.0778 | 0.0728 | 0.0972 | -0.00124
25 | CGCACTG | -0.158 | -0.107 | -0.0429 | 0.519 | -0.115 | 1.58 | 0.0239 | -0.249 | -0.0849 | 0.0887
26 | TTCAGTC | 0.0422 | 0.0555 | 0.221 | -0.00056 | 0.049 | -0.687 | 0.0756 | -0.0827 | 0.0665 | -0.00293
27 | GCTTGGC | 0.12 | -0.0195 | -0.00311 | 0.347 | -0.00506 | -0.285 | 0.0554 | 0.106 | 0.113 | -0.0816
28 | TTTCCGC | -0.114 | -0.211 | -0.509 | -0.774 | -0.203 | -1.11 | -0.584 | -0.194 | -0.182 | -0.283
29 | GACAGGA | 0.154 | 0.152 | 0.36 | 0.695 | 0.00521 | 0.526 | 0.193 | 0.12 | 0.199 | 0.174
30 | ACGTTAT | -0.118 | -0.027 | -0.0815 | -0.716 | 0.0998 | -0.453 | -1.54 | 0.0669 | -0.147 | 0.0298
